# Data from publication PMC6919601, “Identification of Plasmodium dipeptidyl aminopeptidase allosteric inhibitors by high throughput screening” (PLoS ONE, 2019).
# In all, about 110,000 compounds went through this assay and about 230 (0.21%) showed an effect of 50% or more. Some of the results follow.
# Target: DPAP1 (Plasmodium falciparum, UniProt Q8IIJ9)
# Test: primary screen, percent inhibition; read by cleavage of a fluorogenic dipeptide substrate; higher = more effect of the substance
# Set-up: species or system P. falciparum D10 trophozoite lysates; single well
# 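Also: 30 min substrate incubation versus DMSO and 10 µM JCP410 controls.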
# Chain of DPAP1 (Q8IIJ9 whole entry, looked up): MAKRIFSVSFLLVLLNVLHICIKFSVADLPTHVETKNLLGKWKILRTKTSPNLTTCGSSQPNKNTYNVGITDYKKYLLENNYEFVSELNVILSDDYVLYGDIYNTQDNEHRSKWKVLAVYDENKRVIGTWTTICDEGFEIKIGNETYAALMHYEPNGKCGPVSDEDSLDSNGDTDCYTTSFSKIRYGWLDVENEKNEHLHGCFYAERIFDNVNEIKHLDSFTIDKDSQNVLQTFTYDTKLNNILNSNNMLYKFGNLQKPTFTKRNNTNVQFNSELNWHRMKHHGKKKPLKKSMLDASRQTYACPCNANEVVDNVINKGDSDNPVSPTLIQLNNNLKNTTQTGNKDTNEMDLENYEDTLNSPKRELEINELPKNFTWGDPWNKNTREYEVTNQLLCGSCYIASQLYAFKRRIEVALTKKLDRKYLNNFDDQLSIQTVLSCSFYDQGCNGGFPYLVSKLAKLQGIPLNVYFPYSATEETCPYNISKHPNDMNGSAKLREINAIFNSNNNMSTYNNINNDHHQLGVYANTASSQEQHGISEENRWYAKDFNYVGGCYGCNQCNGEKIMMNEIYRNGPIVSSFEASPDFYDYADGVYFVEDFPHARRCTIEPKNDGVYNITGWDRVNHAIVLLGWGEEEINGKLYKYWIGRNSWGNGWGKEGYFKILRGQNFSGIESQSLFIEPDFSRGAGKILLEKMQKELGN
row,SMILES,% Inhibition @ 10 uM [%]
1,O=c1c2cc(-c3ccccc3)sc2nc2c3ccccc3cnn12,0.147
2,CCOCCCNc1nc2ccccc2n2c(C)nnc12,-2.27
3,COc1cccc(CN2CCN(Cc3cccc(C)c3)CC2)c1,-6.48
4,CC1(C)Oc2ccc3ccc(=O)oc3c2C(N=O)=C1O,-1.05
5,CCCCCOC(=O)Nc1nnc(C)s1,1.13
6,O=C(CSc1ncccn1)N1c2ccccc2Sc2ccc(Cl)cc21,-0.545
7,COc1ccc(C2=NN3C(C2)c2cccc(OC)c2OC3c2ccccc2)cc1 (centres unmarked),5.5
8,COc1nsnc1N1CCOCC1,3.36
9,COc1ccc2nc(C)cc(Nc3ccccc3)c2c1,1.72
10,O=C(/C(=C/c1cc(Cl)ccc1O)n1cncn1)c1ccc(Cl)cc1Cl,-1.71
11,O=c1c2cccnc2n(Cc2ccccc2Cl)c(=O)n1Cc1ccccc1,0.0579
12,CCN1C(=O)[C@H]2Cc3c([nH]c4ccccc34)[C@@H](c3ccc(OC)c(OC)c3)N2C1=S,2.94
13,COc1cc(N)n(S(=O)(=O)c2ccc(C)cc2)n1,0.0289
14,COC(=O)c1ccc(Cl)c(-c2ccc(C(=O)N[C@@H](CC(C)C)C(=O)NCC#N)cc2)c1,1.35
15,CCc1ccc(C2CC(c3cc(OC)ccc3OC)n3nnnc3N2)cc1 (centres unmarked),-3.37
16,Cc1nc2nc(C)c(CCC(=O)N3CC(C)CC(C)C3)c(C)n2n1 (centres unmarked),1.26
17,COc1ccccc1NC(=O)/C(=C\c1cccnc1)NC(=O)c1ccc(C)cc1,-4.98
18,COc1ccccc1/C=C/c1nc(C#N)c(N2CCN(Cc3ccccc3)CC2)o1,-0.808
19,CCc1ccc(CN2C[C@@H]3C[C@H](C2)c2cccc(=O)n2C3)cc1,-5.48
20,O=C1CC(NC2CCCC2)C(=O)N1c1cccc(C(F)(F)F)c1 (centres unmarked),-3.53
21,CCN(CC)C(=O)C1CCCN(CC(c2ccccc2)c2ccccc2)C1 (centres unmarked),2.1
22,COc1ccc(/C=C2/c3ccccc3-c3cccnc32)cc1,-6.71
23,Cc1cc(C)c(C#N)c(SCC(=O)c2cc3ccccc3oc2=O)n1,4.63
24,COc1ccccc1CNC(=O)c1noc2c1CSc1ccccc1-2,62.7
25,O=C(c1ccco1)n1nc(-c2cccnc2)nc1NCc1ccc(F)cc1,0.558
26,CCCCOC(=O)C1=C(N)N2C(=O)C(C)SC2=C(C(=O)OCC)C1c1ccc(O)c(OC)c1 (centres unmarked),2.7

row,SMILES,% Inhibition @ 10 uM [%]
1,CC(C)OC(=O)c1c(NS(=O)(=O)c2ccccc2)sc2c1CCCC2,1.64
2,O=c1cc(CO)oc(C(Nc2ccccn2)c2cccc(Cl)c2)c1O (centres unmarked),-7.35
3,C=CCSc1nc2cccnc2[nH]1,2.22
4,O=C(c1ccc2c(Cl)c3c(nc2c1)CCCC3)N1CCCCCC1,-0.942
5,CN1CCN(CC(O)COCCC23CC4CC(CC(C4)C2)C3)CC1 (centres unmarked),-2.15
6,O=C1C2C3CCC(O3)C2C(=O)N1n1cnnc1 (centres unmarked),-0.999
7,COc1ccc(/C=N/CC2OCCc3ccccc32)c(OC)c1 (centres unmarked),11.4
8,CC1(C)CC(NC(=O)CN2CCCC2=O)CC(C)(C)N1,3.9
9,CC(NC(=O)C1(c2ccccc2)CCOCC1)c1ccccc1 (centres unmarked),7.98
10,Cc1cccc(S(=O)(=O)Nc2ccc(-c3cn4cccnc4n3)cc2)c1,3.48
11,COCc1nnc(NC(=O)Cn2cnc3c2c(=O)n(C)c(=O)n3C)s1,1.91
12,CN(C)C(c1ccc(Cl)cc1Cl)c1nnnn1-c1cccc(Cl)c1 (centres unmarked),2.8
13,Cc1ccc(Cn2cnc3c(cnn3C(C)(C)C)c2=O)cc1,3.24
14,CCCNC(=O)Nc1ccc2c(c1)nc(C)n2C,-7.62
15,COc1ccccc1C1CC(c2ccc(C)cc2)=NN1S(C)(=O)=O (centres unmarked),-0.185
16,O=C1CCC(=O)N1c1ccccc1O,1.24
17,CCN(CC)c1ccc2c(C)c(CO)c(=O)oc2c1,-3.66
18,Cc1ccc(/C=C2\C(=N)N3N=C(S(=O)(=O)CC(C)C)SC3=NC2=O)cc1,-1.54
19,COc1ccc(-c2cc(C(=O)N3CCOCC3)c3cc(Br)ccc3n2)cc1,1.8
20,CC(=O)n1cc(C(C[N+](=O)[O-])SCCN)c2ccccc21 (centres unmarked),1.7
21,Cc1cccn2c(=O)c(/C=C(\C#N)C(=O)NCc3ccccc3)c(Oc3ccc(Cl)cc3)nc12,-1.65
22,Cc1ccc(S(N)(=O)=O)cc1NC(=O)Cc1ccccc1,-3.47
23,CCOc1ccccc1NC(=O)c1ccc(OC(F)F)c(OC)c1,4.03
24,NC(=O)C1CCN(C(=O)c2ccc(C#CC3(O)CCCCC3)cc2)CC1,2.05
25,Cc1ccccc1Cn1c2ccccc2c2cnn(CC(=O)NCc3ccc(F)cc3)c(=O)c21,6.27
26,CN(Cc1ccccc1)S(=O)(=O)c1ccc(NC(=O)c2ccc(Br)o2)cc1,-1.37

row,SMILES,% Inhibition @ 10 uM [%]
1,CCOC(=O)c1c(C)n(-c2ccccc2)c2ccc(O)c(CN(C)C)c12,-1.85
2,Cc1ccc2c(Cl)c(C(=O)N3CCCCCC3)sc2c1,-3.35
3,CCOCCCNC(=O)c1ccc(CSc2nc3ccncc3n2Cc2ccccc2C)cc1,-5.49
4,Cc1ccc(N(CC(=O)NCc2ccccc2Cl)S(C)(=O)=O)c(C)c1,3.1
5,CC(C)Oc1ccc(C(=O)NC(CC(=O)O)c2ccccc2)cc1 (centres unmarked),-1.52
6,Oc1nc(NC2CCCCC2)nnc1Cc1ccccc1,0.457
7,Cc1ccc(-c2cc(C(=O)NC(C)(C)CO)no2)cc1,3.54
8,O=C(NCCc1ccccc1)c1ccc(NS(=O)(=O)c2cccc(Cl)c2)cc1,-3.77
9,Cc1ccc(-c2csc(Nc3ccccc3)n2)cc1,-3.79
10,CCOc1cc(CNc2ccccc2Cl)ccc1OC,-2.74
11,Cc1ccc(C(O)C#Cc2ccccc2)o1 (centres unmarked),-0.13
12,COc1ccc(C=C(C#N)C#N)cc1O,3.32
13,Cc1ccc(C)c(S(=O)(=O)Nc2ccccc2Cl)c1,0.132
14,Cc1ccc(C)c(N(CC(=O)Nc2ccc(S(=O)(=O)N3CCCCC3)cc2)S(C)(=O)=O)c1,-4.05
15,Cc1ccc(S(=O)(=O)c2nc(S(C)(=O)=O)sc2N(C)C2CCCCC2)cc1,-0.522
16,CC(C)N(CCC#N)S(=O)(=O)c1ccccc1[N+](=O)[O-],-6.99
17,Cc1nn(-c2ccccc2)c2c1C1(C(=O)Nc3ccc(Cl)cc31)C(C#N)=C(N)O2 (centres unmarked),-4.4
18,CN(C(=O)c1ccccc1)C1(C(=O)NC2CCCC2)CCCCC1,3.9
19,O=C(Cn1ncc2c3ccccc3n(Cc3ccccc3F)c2c1=O)NCCCN1CCCCC1,-7.1
20,CC1=C(C(=O)Nc2ccccc2C)C(c2cccs2)n2c(s/c(=C/c3cn(C)nc3C)c2=O)=N1 (centres unmarked),3.9
21,COc1ccc(CN2CCN(c3cccc(C(F)(F)F)c3)CC2)cc1OC,3.1
22,C1C2CC3CC1CC(C2)C3Nc1nc2nonc2nc1NC1C2CC3CC(C2)CC1C3 (centres unmarked),3.06
23,Nc1cc(=O)nc(SCC(=O)Nc2ccccn2)n1CCc1ccccc1,3.47
24,CCOc1cc(/C=C2\SC(NC(C)=O)=NC2=O)ccc1OCc1ccccc1,2.84
25,CC(C)(C)C(=O)Nc1ccc(NC(=O)C(C)(C)C)c(Cl)c1,-14.2
26,O=S(=O)(c1ccc(-n2cnnn2)cc1)N1CCN(c2cnccn2)CC1,5.43

row,SMILES,% Inhibition @ 10 uM [%]
1,COc1ccc(CNC(=O)CSc2ncnc3[nH]cnc23)cc1,5.03
2,CCn1c2ccccc2c2cc(CNc3ccccc3SC)ccc21,0.217
3,Cc1ccc(C(=O)Nc2cccc(Cl)c2Cl)cc1,3
4,COc1ccc(-c2csc3ncn(CC(=O)NCCc4ccccc4)c(=O)c23)cc1OC,0.161
5,CCN(CC)CC(=O)N1CC(=O)Nc2ccccc21,-6.49
6,Clc1cccc(Cl)c1CN1CCN(C/C=C/c2ccccc2)CC1,1.38
7,CCCO/C(O)=C1/C(C)=NC2=C(C(=O)CCC2)C1c1ccc(SC)cc1 (centres unmarked),2.05
8,Cc1cc2nc(-c3cccc(N)c3C)oc2cc1C,-8.36
9,O=C1C(Cl)=C(Cl)C(=O)N1CCOCCN1C(=O)C(Cl)=C(Cl)C1=O,1.25
10,O=C(Nc1ccccc1C(F)(F)F)c1ccccc1Br,3.85
11,COc1ccc(-c2noc(CN(C(=O)c3ccc4c(c3)OCO4)C(C)C)n2)cc1,2.5
12,Cc1cc(NC(=O)c2sc3nc4c(cc3c2N)N2CCC4CC2)on1,2.77
13,O=C(NC1CCCCCC1)C1CCCN(c2nc3ccccc3n3cccc23)C1 (centres unmarked),5.56
14,COc1ccc(/C=C2/SC(Nc3cccc(C)c3)=NC2=O)c(OC)c1,5.24
15,Cc1ccc(C(=O)NCCc2nc(-c3ccccc3)cs2)cc1,-5.27
16,COCCNC(=O)C1CCCN(C2N=CNc3onc(C)c32)C1 (centres unmarked),1.91
17,CS(=O)(=O)N1CCC(C(=O)NCCN2CCCCCC2)CC1,-1.34
18,CC(NC(=O)Cc1noc2ccccc12)c1ccc2c(c1)OCCO2 (centres unmarked),-5.05
19,CCOC(=O)C1CCCCN1CC1=CC[C@H]2C[C@@H]1C2(C)C (some centres unmarked),-1.78
20,CC(C)C[C@@H](C(=O)NCC#N)N(C)C(=O)c1ccc(-c2csc(N(C)C)n2)cc1,-3.97
21,CCOC(=O)c1c(C)c(C(=O)NCc2ccc3c(c2)OCO3)c(C)n1CC,1.72
22,Cc1ccc(CNC(=O)CSc2nc3c(c(=O)n2CCc2ccccc2)SCC3)cc1,-5.54
23,CCOc1ccc(CNCc2c(C(=O)O)n(Cc3ccccc3)c3cc(OC)ccc23)cc1,-3.27
